Data reported in PubChem BioAssay AID504832 (National Center for Advancing Translational Sciences (NCATS), 2011).
Out of some 310,000 compounds screened, about 18,000 (5.8%) were called active. Inconclusive means that the source gave no clear call. Such entries were picked first, then a sample of the others. Calls come from the whole dose curve; as a rule, active = well fitted inhibition curve with a large enough effect; inconclusive = small, poorly fitted or top-dose-only effect, or another doubt; inactive = no such curve, though single readings can be large or run the other way. No potency is given beside an inconclusive call; the fits are too rough.

Test: Primary qHTS for delayed death inhibitors of the malarial parasite plastid, 48 hour incubation
Details: P. falciparum luciferase growth in erythrocytes; series mostly up to 28.7 µM; activity change, negative = inhibition: at the top concentration
How it was run: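 Luciferase-expressing P. falciparum in infected erythrocytes (2% hematocrit, 0.1% parasitemia final) in RPMI 1640/0.5% Albumax were exposed to compound for 48 hours at 37 C, 5% CO2; growth read as luminescence.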
% is set by controls: 0 for no effect and ±100 for the full control effect; potency is the fitted concentration of half-maximal effect; tags give direction and shape of the fitted curve.

SMILES | Potency | activity change, negative = inhibition
CC(C)[C@H](NC(=O)OCc1ccccc1)C(=O)OCC(=O)N1CCN(c2ccc(F)cc2)CC1 | inconclusive [inhibitor, partial curve] | –
CCc1ccc(C(=O)Nc2ccc3nc(C)ccc3c2)cc1 | – | inactive: 21.1% [at 0.00184 µM]
O=C(c1nc2ccc(Cl)cn2c1CN1CCCC1)N1CCc2ccccc2C1 | inconclusive [inhibitor, partial curve] | –
Cc1ccc(C)c(NC(=O)COC(=O)c2nc(Cl)ccc2Cl)c1 | – | inactive: 4.4%
CN1CCN(c2ccccc2NC(=O)c2cc3c(s2)-c2ccccc2OC3)CC1 | active: 10.4 µM | –
Cc1cc(C)n(C(=O)CNC(=O)C(c2ccccc2)c2ccccc2)n1 | inconclusive [inhibitor, single point] | –
CCCC1=C/C(=C/c2ccc(-c3ccccc3OC)o2)C(=O)O1 | inconclusive [inhibitor, partial curve] | –
O=C(COc1ccc(S(=O)(=O)N2CCCCC2)cc1)N1CCCCCC1 | inconclusive [inhibitor, single point] | –
Cc1ccc(NC(NC(=O)c2cccs2)C(Cl)(Cl)Cl)cc1C (stereo unspecified) | inconclusive [inhibitor, single point] | –
COc1cccc(/C=C/C(=O)OCC(=O)c2c(N)n(C)c(=O)n(C)c2=O)c1 | inconclusive [inhibitor, partial curve, poor fit] | –
CCCC(=O)NC(c1ccco1)c1c(O)ccc2ccccc12 (stereo unspecified) | inconclusive [inhibitor, single point] | –
Cc1noc(C)c1COc1ccccc1C(=O)NC1CCC(C)CC1 (stereo unspecified) | inconclusive [inhibitor, single point] | –
CCCCn1nc2cc(C(=O)NCc3ccco3)ccc2c1OCC | inconclusive [inhibitor, single point] | –
O=C(c1cccc(F)c1)N1CCC2(CC1)NCCc1[nH]cnc12 | – | inactive: 0.206%
CC12COC3(C(=O)Nc4nccs4)CC1CCC32C (stereo unspecified) | inconclusive [inhibitor, single point] | –
CCCn1nnnc1NCc1ccc(SC)cc1 | inconclusive [inhibitor, full curve, poor fit] | –
Clc1ccccc1-c1nc(N/N=C/c2cccnc2)c2ccccc2n1 | inconclusive [inhibitor, single point] | –
O=C(c1cccs1)N1CCN=C1SCc1cccc(F)c1 | – | inactive: -6.51%
CCOC(=O)c1cccc(Nc2nc(-c3cccnc3)nc3ccccc23)c1 | active: 13.1 µM | –
Cc1ccccc1CN1C(=O)C(C)S/C1=N/N=C/c1ccco1 (stereo unspecified) | inconclusive [inhibitor, single point] | –
CCCCn1c(N)c(N(CCOC)C(=O)COC(=O)CCOc2ccc(C)cc2)c(=O)[nH]c1=O | inconclusive [inhibitor, single point] | –
O=C(c1cccs1)[C@@H]1[C@@H]2C(=O)N(Cc3ccc4c(c3)OCO4)C(=O)[C@@H]2C2c3ccccc3C=CN21 (stereo partly specified) | inconclusive [inhibitor, single point] | –
CC(CNC(=O)c1ccc(C(C)(C)C)cc1)CN(C)C (stereo unspecified) | – | inactive: -16.2%

SMILES | Potency | activity change, negative = inhibition
COc1ccc(C2CC(c3ccccc3O)=NN2C(=O)c2ccccc2)cc1OC (stereo unspecified) | active: 6.57 µM | –
FC(F)(F)c1cc(NC2CCCCC2)ccn1 | – | inactive: -17.7%
CCN(CC)c1ccc(NC(=O)c2ccc(Cl)nc2)cc1 | inconclusive [inhibitor, partial curve, poor fit] | –
Clc1ccc(NC2=NCCC2)cc1Cl | inconclusive [inhibitor, single point] | –
CC1CCCC(C)N1c1nnc(N)s1 (stereo unspecified) | – | inactive: 35%
Cc1ccc(NC(=O)C2CC(c3ccc(F)cc3)=NO2)cc1 (stereo unspecified) | inconclusive [inhibitor, full curve, poor fit] | –
CCCOc1ccc(CC(=O)N/N=C\c2ccc(F)cc2)cc1 | – | inactive: 56.6%
Cc1ccc(C)c(NC(=O)CCCCCCCCCCC2COCCO2)c1 (stereo unspecified) | – | inactive: -3.58%
CCCN(C(=O)c1ccccc1N)c1c(C)n(C)n(-c2ccccc2)c1=O | inconclusive [inhibitor, full curve, poor fit] | –
CCc1ccc(OC(C)C(=O)N(Cc2ccccc2)C2CCS(=O)(=O)C2)cc1 (stereo unspecified) | inconclusive [inhibitor, partial curve, poor fit] | –
CC(C)(C)c1ccc(C(=O)Nc2ccc(NC(=O)c3ccco3)cc2)cc1 | inconclusive [inhibitor, partial curve, poor fit] | –
CC(=O)c1ccc(-c2csc(N3CCC(C(N)=O)CC3)n2)cc1 | – | inactive: 23.2%
CCOc1ccc(CN2CCC(C(=O)Nc3cccc(-c4ccn[nH]4)c3)CC2)cc1Cl | inconclusive [inhibitor, single point] | –
O=C(Nc1ccc2nc(-c3cccnc3)[nH]c2c1)C12CC3CC(CC(C3)C1)C2 | active: 11.7 µM | –
COc1ccc(Nc2nc(N)c3ccccc3n2)c(OC)c1 | inconclusive [inhibitor, single point] | –
C=CCN(CC=C)CCOc1ccc(C)cc1[N+](=O)[O-] | – | inactive: 15.1%
COc1ccc(OC)c(C2c3c(oc4ccccc4c3=O)C(=O)N2CCCN(C)C)c1 (stereo unspecified) | inconclusive [inhibitor, partial curve, poor fit] | –
COc1ccc(-c2csc(N3C(=N)SCC3=O)n2)cc1 | – | inactive: 135%
CCOc1cc(CNCc2ccccn2)cc(Cl)c1OCC | – | inactive: -19%
COC(=O)c1sccc1-c1ccc(/C=N/OC(=O)c2ccccc2)o1 | – | inactive: 25.2%
Cc1ccc(C(=O)NC(=S)NCc2cccnc2)c(C)c1 | inconclusive [inhibitor, partial curve, poor fit] | –
Cc1ccc(C)c(N2CCN(CC(=O)Nc3ccc([N+](=O)[O-])cc3C(=O)Nc3ccccc3F)CC2)c1 | inconclusive [inhibitor, partial curve, poor fit] | –
O=C(O)c1ccc(Cl)c(S(=O)(=O)Nc2ccccc2Cc2ccccc2)c1 | – | inactive: 12.4%
